The record followed here is article PMC4336329 (PLoS ONE, 2015).

SMILES strings stand for the structures. Screen size: about 310,000 compounds; about 2,200 (0.71%) showed an effect of 50% or more. Effects have a minus sign here. The list shows a part of the results.

human ether-à-go-go-related gene (hERG) potassium channel, sequence (Q12809 whole entry, looked up): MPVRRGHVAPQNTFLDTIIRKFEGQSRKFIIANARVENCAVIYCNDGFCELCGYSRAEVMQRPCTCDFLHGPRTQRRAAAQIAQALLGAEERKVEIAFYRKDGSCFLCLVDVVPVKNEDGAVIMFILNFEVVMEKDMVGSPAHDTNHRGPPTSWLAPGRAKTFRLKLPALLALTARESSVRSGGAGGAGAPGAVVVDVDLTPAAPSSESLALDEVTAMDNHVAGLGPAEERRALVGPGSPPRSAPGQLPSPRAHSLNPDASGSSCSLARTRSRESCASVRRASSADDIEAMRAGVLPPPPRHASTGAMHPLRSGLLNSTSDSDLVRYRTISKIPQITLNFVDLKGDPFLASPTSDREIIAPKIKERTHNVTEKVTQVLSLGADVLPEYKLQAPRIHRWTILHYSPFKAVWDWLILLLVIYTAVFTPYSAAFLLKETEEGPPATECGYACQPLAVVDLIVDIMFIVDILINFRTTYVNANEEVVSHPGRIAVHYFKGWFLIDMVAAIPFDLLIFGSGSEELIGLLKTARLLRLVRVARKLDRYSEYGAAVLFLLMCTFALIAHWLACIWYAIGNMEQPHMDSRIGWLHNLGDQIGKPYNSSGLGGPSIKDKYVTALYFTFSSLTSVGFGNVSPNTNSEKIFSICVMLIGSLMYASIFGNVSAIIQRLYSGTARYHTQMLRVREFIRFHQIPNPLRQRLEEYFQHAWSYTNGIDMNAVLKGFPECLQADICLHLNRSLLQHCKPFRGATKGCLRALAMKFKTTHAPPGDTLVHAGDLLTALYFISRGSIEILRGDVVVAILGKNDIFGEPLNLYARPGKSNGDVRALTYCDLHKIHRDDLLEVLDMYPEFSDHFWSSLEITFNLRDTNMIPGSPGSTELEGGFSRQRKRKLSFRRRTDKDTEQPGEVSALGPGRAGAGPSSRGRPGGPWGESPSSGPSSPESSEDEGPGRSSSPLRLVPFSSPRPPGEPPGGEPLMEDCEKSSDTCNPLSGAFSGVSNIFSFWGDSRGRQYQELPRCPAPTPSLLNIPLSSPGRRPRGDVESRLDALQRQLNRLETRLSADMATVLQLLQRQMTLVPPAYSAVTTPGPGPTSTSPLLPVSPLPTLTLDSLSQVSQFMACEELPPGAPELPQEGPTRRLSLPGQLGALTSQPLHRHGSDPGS

This test concerns the target human ether-à-go-go-related gene (hERG) potassium channel (human, UniProt Q12809). The test is described as follows: primary screen, population patch clamp on CHO cells stably expressing hERG.
As for `COC(=O)/C=C/C(=O)Nc1ccc(O)c(Cl)c1`, the “hERG current change (%, negative = inhibition) at 1uM” value was determined as 1.7%. Next, `CCOC(=O)c1c(NC(=S)N2CCCCC2)sc2c1CCN(C(=O)OCC)C2`: 9.2%; `O=C(CNC(=O)c1cccs1)OCc1c(F)cccc1Cl`: 12.6%. Next, `CC1CCCC(C)N1C(=O)COC(=O)c1nn(C)c(=O)c2ccccc12` (centres unmarked): 15.3%; `CN(C)S(=O)(=O)c1cc(C(=O)Nc2ccccc2C(=O)NC2CC2)ccc1Cl`: -3.31%. Next, `CCC(C)c1ccc(NC(=O)N2CCN(C(=O)C3CCCO3)CC2)cc1` (centres unmarked): 12.7%; `Cc1ccc(-c2nc(CSCC(=O)NCc3cccnc3)c(C)o2)cc1`: 2.19%. For `Cc1cc(C)n2nc(S(=O)(=O)NCCc3ccccc3)nc2n1`, the “hERG current change (%, negative = inhibition) at 1uM” value amounted to 8.79%. For `CC(C)Cn1c(N)c(C(=O)COC(=O)c2cc(C3CC3)nc3ccccc23)c(=O)n(C)c1=O`, the “hERG current change (%, negative = inhibition) at 1uM” value worked out at 9.29%. Take `Nc1c(NCc2ccccc2F)c(=O)[nH]c(=O)n1Cc1ccccc1`: the “hERG current change (%, negative = inhibition) at 1uM” value is 5.48%.

On to `O=C(Cc1ccc(Br)cc1)Nc1ccc2[nH]ncc2c1`, for which the “hERG current change (%, negative = inhibition) at 1uM” value stood at 18.1%. Next, `COc1ccc(OCCCC(=O)Nc2ccc3c(c2)OCO3)cc1`: -3.12%. As to `CS(=O)(=O)N(CC(=O)Nc1cccnc1)c1ccc2c(c1)OCCO2`, the “hERG current change (%, negative = inhibition) at 1uM” value is recorded as 13.5%.

`COc1ccc2cc(S(=O)(=O)NC3CC(C)(C)NC(C)(C)C3)ccc2c1`: the “hERG current change (%, negative = inhibition) at 1uM” value is recorded as -3.14%. On to `CCn1c2ccccc2c2cc(NC(=O)CSc3nnc(-c4cccc(Cl)c4)o3)ccc21`, for which the “hERG current change (%, negative = inhibition) at 1uM” value came out at 9.78%. Next, `CCN(Cc1ccccc1)C(=O)c1nn(-c2ccc(OC)cc2)c(=O)c2c1c1ccccc1n2C`: -3%; `CC(C)(CNc1ccc(S(=O)(=O)C(F)(F)F)cc1[N+](=O)[O-])N1CCOCC1`: 9.84%; `O=S(=O)(Nc1cccc(Br)c1)c1cccc2nsnc12`: 11.8%. Next, `COc1ccc(/C(C)=N/NC(=O)Cc2ccc(Cl)cc2)cc1`: 11.9%; `CC1(C)CC(N2CCOCC2)=CC(=[N+]2CCOCC2)C1.[I-]`: 8.12%. Next, `CC(C)(C)[C@H]1CCC(=O)N([C@H](CC#N)Cc2ccccc2)CC1`: 5.43%; `N/C(=N\OC(=O)CCCCCN1C(=O)c2ccccc2C1=O)c1ccccn1`: -0.459%; `CCCCn1c(O)c(/C=C/C=C/C=Nc2ccccc2)sc1=S`: 27.7%. Regarding `COC(=O)Cc1nnc(NC(=O)c2ccccc2)s1`, the “hERG current change (%, negative = inhibition) at 1uM” value is recorded as 11.5%.

Take `CC(C)(CNC(=O)c1sc2cc(F)ccc2c1Cl)N1CCOCC1`: the “hERG current change (%, negative = inhibition) at 1uM” value is given as -3.73%.

For the molecule `Cc1cc(C)c(S(=O)(=O)NCc2cccs2)cc1C`, the “hERG current change (%, negative = inhibition) at 1uM” value was -4.26%. Next, `O=C(Nc1cccc([N+](=O)[O-])c1)C1C2/C=C\CCCCC21` (centres unmarked): 13.9%. The value for `Cc1ccccc1N1C(=O)CC(N(O)c2ccccc2)C1=O` (centres unmarked) was 8.96%; that for `NS(=O)(=O)c1ccc(NS(=O)(=O)c2ccc(Br)cc2)cc1` was 12.5%. Next, `Cc1ccc(S(=O)(=O)N2CCN(C(=O)COC(=O)c3oc4ccccc4c3C)CC2)cc1`: 11.1%; `Cc1ccc(C(=O)NC2CC(C)(C)NC(C)(C)C2)cc1`: 2.45%; `COc1ccccc1NC(=O)CSc1nnnn1-c1ccc(F)cc1`: 8.93%.

Turning to `COC(=O)C(C)Oc1ccc(-c2nccc(-c3cccs3)n2)cc1` (centres unmarked), the “hERG current change (%, negative = inhibition) at 1uM” value stood at 10%. The value for `CCC(C)[C@H](NC(=O)N1CCN(C)CC1)C(=O)OC` (some centres unmarked) was 14.7%; that for `OCCC1CN(Cc2cccn2-c2ncccn2)CCN1C1CCCC1` (centres unmarked) was 0.978%; that for `Cc1nc2sccn2c(=O)c1S(=O)(=O)N1CCN(c2ccccc2)CC1` was 7.33%. Next, `O=S1(=O)CCN2C=C(Br)C=C(Br)C2=N1`: -1.67%.

Regarding `CC1CCCCC1NC(=O)CCn1c(=O)oc2ccccc21` (centres unmarked), the “hERG current change (%, negative = inhibition) at 1uM” value is given as -0.537%. `O=C(CCn1c(=S)[nH]c2ccccc2c1=O)NCC1CCCO1` (centres unmarked): the “hERG current change (%, negative = inhibition) at 1uM” value is recorded as -1.57%. The value for `Nc1c(C(=O)c2ccccc2)sc2c1c(=O)[nH]c(=O)n2-c1ccccc1` was -0.482%; that for `CC(C)n1c(O)c(N=NC(=O)C2COc3ccccc3O2)c2ccccc21` (centres unmarked) was 8.58%; that for `COc1ccc(CCNC(=O)CSc2nc3[nH]ncc3c(=O)n2-c2ccccc2Br)cc1OC` was 36.2%.

For the molecule `Cc1cc(C(=O)Nc2nc3c(C)cccc3s2)c(C)o1`, the “hERG current change (%, negative = inhibition) at 1uM” value came to 5.46%. The value for `Cc1cc(C)c2c(N)c(C(=O)N/N=C/c3cccnc3)sc2n1` was 13.2%. The value for `CC(C)CNS(=O)(=O)c1ccc(S(=O)(=O)N2CCCN(Cc3ccccc3)C2)cc1` was 7.2%; that for `O=C1Nc2ccccc2C12Nc1ccccc1-c1nc3ccccc3n12` (centres unmarked) was 6.73%; that for `Fc1ccc(NC(=S)N2CCCc3ccccc32)cc1` was 4.07%. The value for `O=C(CSc1nnc(-c2ccncc2)n1Cc1ccccc1)Nc1nccs1` was 6.45%. For the molecule `CCOc1ccccc1N(CC(=O)Nc1ccccc1C(=O)N1CCOCC1)S(C)(=O)=O`, the “hERG current change (%, negative = inhibition) at 1uM” value came out at 14.3%. The value for `CN(c1ccc(OCC(=O)NCCc2ccccc2)cc1)S(=O)(=O)c1ccc(Cl)cc1` was 10.3%. Next, `Cc1cc(NC(=O)CN2CCCCC2C)nc2c1c(=O)oc1ccccc12` (centres unmarked): 12.3%. Regarding `Clc1ccc(N/N=C/c2ccncc2)cc1Cl`, the “hERG current change (%, negative = inhibition) at 1uM” value is 13.8%. Next, `O=C(NC(=S)NCc1ccccc1)c1ccc2c(c1)OCO2`: 2.26%; `CCN1CCN(C(=S)c2ccc(OCC(=O)N3CCOCC3)cc2)CC1`: 16.2%. Next, `Cc1cccc(CC(C)NC(=O)CCc2nnc(CCCCc3ccccc3)o2)n1` (centres unmarked): 8.38%; `CC(C)CNC(=O)C1CCN(Cc2ccc(OCc3ccccc3)cc2)CC1.O=C(O)C(=O)O`: -26.7%; `Cc1ccc(C)c(C(=O)O/N=C(\N)c2ccc(Br)cc2)c1`: 5.76%. The value for `COc1cccc(NC(=O)c2cnc(SC)nc2C)c1` was 13.4%.

Take `CCOc1cccc(/C=N/NC(=S)Nc2ccccc2[N+](=O)[O-])c1O`: the “hERG current change (%, negative = inhibition) at 1uM” value worked out at 12.4%. For `COc1cccc(OC)c1C(=O)Nc1cccc(-c2nc3ccccc3[nH]2)c1`, the “hERG current change (%, negative = inhibition) at 1uM” value is on record as -0.724%. Turning to `CC1CCOC2(O1)C(=O)Nc1ccccc12` (centres unmarked), the “hERG current change (%, negative = inhibition) at 1uM” value turned out to be 7.37%. With `Cn1c(=O)c(C(=O)CN2CCc3ccccc32)c(N)n(Cc2ccccc2)c1=O`, the “hERG current change (%, negative = inhibition) at 1uM” value is on record as -1.78%.

With `Cc1cc([N+](=O)[O-])ccc1-c1ccc(/C=N/NC(=O)c2ccc(Br)o2)o1`, the “hERG current change (%, negative = inhibition) at 1uM” value was -4.2%. Next, `Cc1cccc(NC(=O)N2CCCC2C(=O)NCc2cccs2)c1` (centres unmarked): 1.27%. Next, `CCOC(=O)N1CCC(NC(=O)CCc2ccccc2)CC1`: 11.6%; `CCOC(=O)[C@@H]1[C@H]2COc3cc(OC)ccc3[C@@H]2N2C(=O)N(c3ccc(F)cc3)C(=O)[C@]12C`: 8.75%; `Cc1cc(NC(=O)COC(=O)COc2cccc3c2OC(C)(C)C3)no1`: 13.6%. On to `CCOc1cccc2cc(C(=O)NCc3ccc(OC)cc3)c(=N)oc12`, for which the “hERG current change (%, negative = inhibition) at 1uM” value is 11.5%. Next, `CCCCOC(=O)C1=C(C)Nc2ncnn2C1c1ccc(OC)c(OC)c1` (centres unmarked): 2.61%. The value for `COc1ccc2cc(/C=N/O)c(Cl)nc2c1` was 11.2%.

As to `CCN1CC(CN(C)Cc2nc(-c3ccc(OC)c4ccccc34)oc2C)CC1=O` (centres unmarked), the “hERG current change (%, negative = inhibition) at 1uM” value amounted to 1.02%. `COc1ccc(CC(=O)Nc2nnc(C(C)C)s2)cc1OC`: the “hERG current change (%, negative = inhibition) at 1uM” value was determined as 4.74%.

Turning to `O=C1NC(Cc2c[nH]c3ccccc23)C(=O)N1c1ccc(F)cc1` (centres unmarked), the “hERG current change (%, negative = inhibition) at 1uM” value turned out to be 14.3%.

On to `COc1cccc(N(C(=O)c2nc3nccc(C)n3n2)c2nc3ccccc3s2)c1`, for which the “hERG current change (%, negative = inhibition) at 1uM” value is given as 3.26%.

With `CN1CCN(c2nc3c(c(=O)n(C)c(=O)n3C)n2Cc2cccc3ccccc23)CC1`, the “hERG current change (%, negative = inhibition) at 1uM” value turned out to be 3.53%. Next, `O=C(CCC(=O)N(CC(=O)NC1CCCCC1)c1ccccc1F)Nc1nccs1`: -2.33%; `O=C1NC(=O)N(c2ccccc2)C(=O)/C1=C/c1ccoc1`: 15%. The value for `Cc1nn(-c2ccccc2)c(C)c1C(=O)OCC(=O)N1c2ccccc2NC(=O)C1(C)C` was 2.24%; that for `Cc1cc(N)n(-c2nc(-c3cccnc3)nc3ccccc23)n1` was -7.06%.

For `Cc1ccc(-n2c(-c3cc(-c4ccco4)[nH]n3)n[nH]c2=S)c(Br)c1`, the “hERG current change (%, negative = inhibition) at 1uM” value is on record as 11.6%.

Turning to `COc1cc(C(CCN2CCCC2)c2c(OC)cc(OC)c3ccc(=O)oc23)cc(OC)c1OC` (centres unmarked), the “hERG current change (%, negative = inhibition) at 1uM” value was -26.2%.

In the case of `O=S(=O)(Nn1cnnc1)c1ccccc1Cl`, the “hERG current change (%, negative = inhibition) at 1uM” value worked out at 14.1%. Next, `O=C(CSc1nc2ccccc2nc1N1CCOCC1)Nc1ccccc1F`: 6.29%; `COc1cc(Cl)c(C)cc1NC(=O)CSCC#N`: 5.82%. The value for `Cc1ccc(NC(=O)CCn2nc(C)cc2C)c(C)c1` was 8.75%; that for `CNC(=S)N/N=C/c1ccc(C(C)C)cc1` was 7.9%. `CCOc1ccc2nc(Cl)sc2c1`: the “hERG current change (%, negative = inhibition) at 1uM” value is reported as 12%. In the case of `COc1ccc(NC(=O)c2cc([N+](=O)[O-])ccc2N2CCN(C)CC2)cc1`, the “hERG current change (%, negative = inhibition) at 1uM” value is listed as -15.5%.

Turning to `CC(Oc1ccc(Cl)cc1Cl)C(=O)NNC(=O)[C@@H]1CCCC[C@@H]1C(=O)O` (some centres unmarked), the “hERG current change (%, negative = inhibition) at 1uM” value came to 8.32%.
